Experimental data from patent US20140234313A1 (AFFINITY BIOSCIENCES, published 2014).

T1: mAG-BioHis6 protein (monomeric Azami-Green with C-terminal BirA biotinylation motif and 6xHis tag) (biotinylated (E. coli BirA biotinylation motif) where bound to streptavidin beads)
T1 construct: Fluorescent target protein, purified; also called mAG1; biotinylated mAG
T1 chain: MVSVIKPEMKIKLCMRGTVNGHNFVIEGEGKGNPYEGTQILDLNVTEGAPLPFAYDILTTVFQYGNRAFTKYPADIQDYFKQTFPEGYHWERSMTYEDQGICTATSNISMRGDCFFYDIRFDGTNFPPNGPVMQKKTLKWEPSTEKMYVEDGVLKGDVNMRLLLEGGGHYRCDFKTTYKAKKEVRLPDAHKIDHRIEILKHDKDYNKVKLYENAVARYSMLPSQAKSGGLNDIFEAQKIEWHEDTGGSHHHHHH


Tests used:
[1] = biological target: T1, mAG-BioHis6 protein (monomeric …); assay: RED display screen (MACS beads, FACS), mAG labelling of permeabilised cells
Description: 10¹⁰ cells of the diversified library, representing a ˜100-fold redundancy were induced for RED display as described in Example 2 and in WO 2011/075761. The permeabilised cells were suspended in 50 mL PBS and were labeled with purified mAG that had been pre-bound to MACS streptavidin-conjugated microbeads (130-048-102, Miltenyi Biotec). The cells and microbeads were gently agitated overnight at 4° C. They were then loaded onto 3×LS columns (130-042-401, Miltenyi Biotec) that were fixed to a magnetic support. Each column was washed with 50 mL of PBS. The cells were eluted in 10 mL PBS, pooled and pelleted. Plasmid DNA encoding the library in the RED display vector was isolated from the cell pellet by the alkaline lysis. The plasmid was then electroporated back into Argentum cells and the induction, binding and column purification was repeated. After four iterations of the affinity screen, a low abundance of RED permeabilised cells were observed by fluorescence microscopy to be binding to the mAG protein. At the fifth iteration the permeabilised cells were sorted for mAG binding by FACS. Cells were labeled for FACS using SNAP ligand, to normalise the fusion protein expression, and mAG. […] The scFv from the mAG-positive cells that were the FACS output were recovered by PCR using oligonucleotide primers flanking the scFv sequence and the product was re-cloned back into the RED display vector. […]

[2] = biological target: T1, mAG-BioHis6 protein (monomeric …); assay: FACS and fluorescence microscopy of permeabilised cells with encapsulated lysis-defective lambda phage, labelled with mAG
Description: The mAG-positive cells containing encapsulated phage are in the right gate. The bacteriophage recovered from the FACS screen were induced for bacteriophage replication and gpD::α-mAG expression and labeled with mAG using the RED method (Bottom).
The gpD::α-mAG scFv fusion was then cloned into the lambda display vector under the control of the araBAD promoter. The host cells were induced for lambda packaging by heating the lysogen clone at 42° C. for 15 minutes (the lambda genetic background was cI857 gpD⁺ RS⁻ with the temperature sensitive cI repressor). The fusion protein was induced with 0.2% arabinose immediately following thermal induction. The culture was grown, with aeration, at 32° C. for a further 75 minutes. The cells were pelleted and resuspended in ⅓^rd culture volume of LB media+0.5% 8TGP and incubated at 25° C. for 10 minutes to permeabilise the cells by the RED method for screening. To release the phage, 1/10,000th culture volume of Ready-Lyse (Epicentre) lysozyme was added to the suspension. A drop of chloroform was added to inactivate any surviving cells and the bacteriophage particles released were titred for lysogen forming units (cfu/mL). Two bacteriophage stocks were made—one with the construct with the cloned gpD::α-mAG scFv fusion, the other an empty construct. […]

Binder	binding result [1]	binding result [2]
α-mAG scFv (mAG-binding IGLV3-1::IGHV3-23 clone) displayed in RED permeabilised E. coli cells (scFv, Expressed in the E. coli cytoplasm as a fusion in the RED display vector and retained in permeabilised cells; also called anti-mAG-BioHis6 scFv; not shown: the vector is described in WO 2011/075761) scFv: MGDGQSVLTQPPSVSVSPGQTASITCSGDKLGDKYACWYQQKPGQSPVLVIYQDSKRPSGIPERFSGSNSGNTATLTISGTQAMDEADYYCQAWDFNLGGCGDTVVFGTGTKVTVSSQTGGSGGGGSGGGGSGGGGS[letters of about 100 residues left out]HIDGPVAAFDIWGQGTMVTVSSSSQTSILVA	binds	–
gpD::α-mAG scFv fusion protein (scFv, α-mAG scFv as C-terminal fusion to the lambda bacteriophage gpD capsid protein with C-terminal FLAG; also called lambda capsid gpD fusion of the α-mAG scFv) scFv: MTSKETFTHYQPQGNSDPAHTATAPGGLSAKAPAMTPLMLDTSSRKLVAWDGTTDGAAVGILAVAADQTSTTLTFYKSGTFRYEDVLWPEAASDETKKRTAFAGTAISIVGGSGGSDDDDKSRNGGDGQSVLTQPPSVSVSPGQTASITCSGDKLGDKYACWYQQKPGQSPVLVIYQDSKRPSGIPERFSGSNSGNTATLTISGTQAMDEADYYCQAWDFNLGGCGDTVVFGTGTKVTVSSQTGGSGGGGSGGGGSGGGGS[letters of about 100 residues left out]HIDGPVAAFDIWGQGTMVTVSNSSDYKDDDDK	–	binds
